32 compounds from the antibiotic and cytotoxicity screens of Wong et al. (2023) can be followed below.

SMILES strings stand for the structures. Some of the results follow.

One experiment relates to HSkMC. In words: cytotoxicity call (relative viability < 0.9). The note with it: 10 µM.
The subject of the next experiment is S. aureus RN4220. In words: growth inhibition call (relative growth <= 0.2). The note with it: 50 µM.

Turning to `O=S1(=O)C[C@H](NC[C@H]2C[C@@H]3C=C[C@H]2C3)[C@@H](O)C1`, in the experiment with HSkMC, the cytotoxicity call is “inactive”. For the same compound, the growth inhibition call in the experiment on S. aureus RN4220 was “inactive”.
For `C[C@@H]1CCCCO[C@@H](CN(C)Cc2ccc3c(c2)OCO3)[C@H](C)CN([C@@H](C)CO)C(=O)c2cc(NC(=O)C3CCCCC3)ccc2O1`, the cytotoxicity call with HSkMC is “inactive”. In the experiment on S. aureus RN4220, the growth inhibition call was “inactive”.
Turning to `C[C@@H]1CCCCO[C@H](CN(C)Cc2ccc3c(c2)OCO3)[C@@H](C)CN([C@H](C)CO)C(=O)c2cc(NC(=O)Nc3ccccc3)ccc2O1`, the cytotoxicity call with HSkMC was “inactive”. Moreover, in the experiment on S. aureus RN4220, the growth inhibition call was “inactive”.
Regarding `C[C@H]1CN([C@@H](C)CO)C(=O)c2cc(NC(=O)CCCN(C)C)ccc2O[C@H]1CN(C)Cc1ccccc1`, in the experiment on HSkMC, the cytotoxicity call is “inactive”. Besides, in the experiment with S. aureus RN4220, the growth inhibition call was “inactive”.
As to `N=C(N=C(N)N)Nc1cccc(Cl)c1`, the cytotoxicity call in the experiment with HSkMC is “inactive”. For the same compound, the growth inhibition call in the experiment on S. aureus RN4220 was “inactive”.
Turning to `Cn1ccc2ccc(CN)cc21`, the cytotoxicity call in the experiment with HSkMC is “inactive”. Besides, the growth inhibition call in the experiment on S. aureus RN4220 is “inactive”.
In the case of `COc1ccc(NC(=O)Nc2ccc3c(c2)C(=O)N([C@H](C)CO)C[C@@H](C)[C@H](CN(C)CC2CC2)OCCCC[C@H](C)O3)cc1`, in the experiment with HSkMC, the cytotoxicity call is “inactive”. In addition, in the experiment on S. aureus RN4220, the growth inhibition call is “inactive”.
As to `O=c1nc(N2CCc3ccccc3C2)cn[nH]1`, the cytotoxicity call in the experiment with HSkMC was “inactive”. Besides, the growth inhibition call in the experiment on S. aureus RN4220 is “inactive”.
As for `CCOC(=O)C1=C(C)NC(c2ccccc2)=C(C(=O)OCc2ccc([N+](=O)[O-])cc2)[C@@H]1C#Cc1ccccc1`, in the experiment on HSkMC, the cytotoxicity call was “inactive”. The growth inhibition call in the experiment on S. aureus RN4220 was “inactive”.
Turning to `Cc1noc(C)c1NC(=O)Nc1ccc2c(c1)C(=O)N([C@@H](C)CO)C[C@H](C)[C@@H](CN(C)C(=O)C1CCCCC1)OCCCC[C@@H](C)O2`, in the experiment with HSkMC, the cytotoxicity call was “inactive”. For the same compound, in the experiment with S. aureus RN4220, the growth inhibition call is “inactive”.
Regarding `C[C@@H]1CN([C@@H](C)CO)C(=O)c2cc(NC(=O)Cc3ccccc3)ccc2O[C@@H](C)CCCCO[C@@H]1CN(C)Cc1ccccc1`, in the experiment with HSkMC, the cytotoxicity call was “inactive”. In the experiment on S. aureus RN4220, the growth inhibition call is “inactive”.
Consider `COc1cccc(S(=O)(=O)Nc2ccc3c(c2)[C@H]2C[C@@H](CC(=O)NCc4ccccc4F)O[C@H](CO)[C@H]2O3)c1`, for which the cytotoxicity call in the experiment on HSkMC was “inactive”. For the same compound, the growth inhibition call with S. aureus RN4220 is “inactive”.
For the compound `CC(C)NC(=O)N(C)C[C@H]1Oc2ccc(NC(=O)CCN3CCOCC3)cc2C(=O)N([C@H](C)CO)C[C@@H]1C`, the cytotoxicity call in the experiment with HSkMC is “inactive”. Further, in the experiment on S. aureus RN4220, the growth inhibition call was “inactive”.
For the compound `C[C@@H]1CN([C@@H](C)CO)C(=O)c2cccc(NC(=O)Nc3ccc(C(F)(F)F)cc3)c2O[C@H]1CN(C)C(=O)Nc1ccc2c(c1)OCO2`, the cytotoxicity call in the experiment on HSkMC was “inactive”. For the same compound, in the experiment with S. aureus RN4220, the growth inhibition call was “inactive”.
Take `COCc1nc(C)c(CN)s1`: in the experiment with HSkMC, the cytotoxicity call was “inactive”. The growth inhibition call in the experiment with S. aureus RN4220 is “inactive”.
Take `CC(C)C[C@H](NC(=O)[C@@H](COC(C)(C)C)NC(=O)[C@H](Cc1ccc(O)cc1)NC(=O)[C@H](CO)NC(=O)[C@H](Cc1c[nH]c2ccccc12)NC(=O)[C@H](Cc1cnc[nH]1)NC(=O)[C@@H]1CCC(=O)N1)C(=O)N[C@@H](CCCNC(=N)N)C(=O)N1CCC[C@H]1C(=O)NNC(N)=O`: in the experiment with HSkMC, the cytotoxicity call is “inactive”. Moreover, the growth inhibition call with S. aureus RN4220 is “inactive”.
Take `C[C@@H]1CCCCO[C@H](CN(C)Cc2ccccc2)[C@H](C)CN([C@@H](C)CO)C(=O)c2cc(NC(=O)CCC(F)(F)F)ccc2O1`: the cytotoxicity call in the experiment on HSkMC is “inactive”. For the same compound, in the experiment with S. aureus RN4220, the growth inhibition call is “inactive”.
With `C[C@@H]1CN([C@H](C)CO)C(=O)c2cccc(NC(=O)C3CCCCC3)c2O[C@H]1CN(C)Cc1ccc(C(=O)Nc2ccccc2N)cc1`, the cytotoxicity call in the experiment on HSkMC was “inactive”. The growth inhibition call with S. aureus RN4220 was “inactive”.
Consider `C[C@@H]1CN([C@H](C)CO)C(=O)c2cc(NC(=O)CCCCCC(=O)Nc3ccccc3N)ccc2O[C@H]1CN(C)Cc1ccccc1`, for which the cytotoxicity call with HSkMC is “inactive”. Also, in the experiment on S. aureus RN4220, the growth inhibition call was “inactive”.
For the compound `OC[C@@H]1CCCO1`, the cytotoxicity call in the experiment on HSkMC was “inactive”. The growth inhibition call in the experiment on S. aureus RN4220 is “inactive”.
`O=C1CCOC[C@@H]2CCCN12`: the cytotoxicity call in the experiment on HSkMC is “inactive”. Further, the growth inhibition call with S. aureus RN4220 is “inactive”.
For the compound `C[C@H]1CCCCO[C@@H](CN(C)S(=O)(=O)c2ccc(F)cc2)[C@@H](C)CN([C@@H](C)CO)C(=O)c2cc(NC(=O)Nc3cccc4ccccc34)ccc2O1`, in the experiment with HSkMC, the cytotoxicity call was “inactive”. In addition, in the experiment with S. aureus RN4220, the growth inhibition call is “inactive”.
`CC(C)NC(=O)Nc1ccc2c(c1)CC(=O)N([C@H](C)CO)C[C@@H](C)[C@@H](CN(C)S(=O)(=O)c1ccc(Cl)cc1)O2`: the cytotoxicity call with HSkMC was “inactive”. The growth inhibition call with S. aureus RN4220 was “inactive”.
Consider `C[C@@H]1CN([C@@H](C)CO)C(=O)c2cc(NC(=O)Nc3ccc(F)cc3)ccc2O[C@@H]1CN(C)CC1CCCCC1`, for which the cytotoxicity call with HSkMC is “inactive”. The growth inhibition call in the experiment on S. aureus RN4220 was “inactive”.
Take `OC[C@H]1O[C@@H](n2cnc3c(NC4CCCC4)ncnc32)[C@H](O)[C@@H]1O`: in the experiment with HSkMC, the cytotoxicity call was “inactive”. Also, the growth inhibition call in the experiment with S. aureus RN4220 is “inactive”.
As for `C[C@@H]1CN([C@H](C)CO)S(=O)(=O)c2ccc(C#CCN(C)C)cc2O[C@H]1CN(C)C(=O)Nc1ccccc1F`, in the experiment with HSkMC, the cytotoxicity call is “inactive”. Moreover, the growth inhibition call in the experiment on S. aureus RN4220 was “inactive”.
Turning to `CN1CCN(C(=O)C[C@H]2CC[C@H]3[C@@H](COC[C@H](O)CN3Cc3ccc(Oc4ccccc4)cc3)O2)CC1`, the cytotoxicity call in the experiment on HSkMC was “inactive”. The growth inhibition call with S. aureus RN4220 was “inactive”.
Turning to `C[C@H]1CN([C@@H](C)CO)C(=O)c2cccc(NC(=O)c3ccc(-c4nccs4)cc3)c2O[C@H]1CN(C)C(=O)NC1CCCCC1`, in the experiment on HSkMC, the cytotoxicity call was “inactive”. For the same compound, the growth inhibition call with S. aureus RN4220 was “inactive”.
As to `COc1ccc(-n2nc(C(=O)NCC(=O)N3CCN(c4ccccc4)CC3)c3ccccc3c2=O)c(OC)c1`, the cytotoxicity call with HSkMC is “inactive”. The growth inhibition call with S. aureus RN4220 is “inactive”.
On to `C/C=C(\C(C)=N\O)c1ccccc1`, for which, in the experiment on HSkMC (human skeletal muscle cells), the cytotoxicity call was “inactive”. Also, the growth inhibition call in the experiment with S. aureus RN4220 is “inactive”.
`Cc1cc(=O)n2c(C)nnc2[nH]1`: in the experiment with HSkMC, the cytotoxicity call is “inactive”. In the experiment on S. aureus RN4220, the growth inhibition call is “inactive”.
Take `C[C@H](CO)N1C[C@H](C)[C@H](CN(C)C(=O)Nc2ccc(C(F)(F)F)cc2)OCCCC[C@H](C)Oc2ccc(NC(=O)CCC(F)(F)F)cc2C1=O`: the cytotoxicity call in the experiment with HSkMC was “inactive”. Also, the growth inhibition call in the experiment on S. aureus RN4220 was “inactive”.
